Measurements as given in the supplement of paper PMC3334620.
Whole data set: some 33,000 sequences, median “E-score (-0.5 to 0.5)” near -0.035, cut for the highest 2% near 0.35. This is one part of the list.

Target: T1, Pdr3 (UniProt P33200)
T1 sequence: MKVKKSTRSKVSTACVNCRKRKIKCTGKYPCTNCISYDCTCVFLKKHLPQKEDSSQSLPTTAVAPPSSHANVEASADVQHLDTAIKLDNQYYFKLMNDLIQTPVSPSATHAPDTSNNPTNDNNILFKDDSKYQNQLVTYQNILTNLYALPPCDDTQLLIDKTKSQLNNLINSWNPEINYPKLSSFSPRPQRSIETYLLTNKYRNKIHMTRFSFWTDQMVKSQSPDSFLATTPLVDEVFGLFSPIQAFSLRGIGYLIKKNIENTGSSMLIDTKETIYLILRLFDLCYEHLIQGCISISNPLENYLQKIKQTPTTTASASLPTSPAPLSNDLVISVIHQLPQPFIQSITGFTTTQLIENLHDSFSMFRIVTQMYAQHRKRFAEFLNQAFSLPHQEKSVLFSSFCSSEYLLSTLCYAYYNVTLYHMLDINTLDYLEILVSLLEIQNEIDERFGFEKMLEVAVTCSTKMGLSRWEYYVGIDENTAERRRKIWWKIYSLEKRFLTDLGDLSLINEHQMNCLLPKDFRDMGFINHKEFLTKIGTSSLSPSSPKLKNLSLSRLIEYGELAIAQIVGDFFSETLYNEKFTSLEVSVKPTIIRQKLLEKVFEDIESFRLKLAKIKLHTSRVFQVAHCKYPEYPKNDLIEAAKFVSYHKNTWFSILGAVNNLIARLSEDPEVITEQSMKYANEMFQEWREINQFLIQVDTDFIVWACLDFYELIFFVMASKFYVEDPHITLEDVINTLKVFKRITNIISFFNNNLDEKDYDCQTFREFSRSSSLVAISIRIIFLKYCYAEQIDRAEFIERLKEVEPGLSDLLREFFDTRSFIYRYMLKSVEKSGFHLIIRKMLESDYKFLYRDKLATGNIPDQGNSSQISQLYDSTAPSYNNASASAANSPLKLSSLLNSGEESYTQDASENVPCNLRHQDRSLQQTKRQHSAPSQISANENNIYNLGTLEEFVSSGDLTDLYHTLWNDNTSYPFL
Test: PBM E-score (8-mer binding enrichment) (E-score (-0.5 to 0.5)); higher = stronger / more preferred TF binding; most listed sequences are background and not binding sites
Details: protein concentration: 200 nM; construct: GST-full length
Procedure, shortened: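 The E-score, a modified Wilcoxon-Mann-Whitney statistic, was computed by the Universal PBM Analysis Suite for every ungapped eight-base word pooled with its reverse complement. Scans behind it were normalised with masliner after bound GST-tagged yeast transcription factors were detected with fluorescent anti-GST. The proteins, at about 100-200 nM, had been applied to universal all-10-mer Agilent arrays made double-stranded by primer extension.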

Row | Sequence | PBM E-score
1 | ACGCGGGA | 0.317
2 | CGTCTACA | -0.13
3 | AACGGATG | 0.283
4 | GTTCGGTA | 0.0837
5 | TGGCCGAA | 0.175
6 | CTCTCATA | -0.0485
7 | AGGCAGCA | -0.0599
8 | AAGGTGAT | -0.148
9 | CGTGCCAG | -0.138
10 | AATATAAT | -0.0536
11 | CCGACGAC | 0.221
12 | ACCACAAA | -0.03
13 | CCTTAGAC | -0.246
14 | CTCCATTA | 0.0305
15 | CCTACGCA | -0.308
16 | CGTCTTCC | 0.17
17 | GCCATCAA | -0.163
18 | TAACTTGA | -0.232
19 | AGCCTACT | -0.186
20 | ATCGTCCC | 0.124
21 | AACCTCGC | 0.0544
22 | CCCTCCAG | -0.0628
23 | GACCGAGA | 0.225
24 | AAGCGTCG | -0.135
25 | GTTGCCGA | 0.234

Row | Sequence | PBM E-score
26 | GCTATAGC | -0.328
27 | AAGCTAGG | -0.0943
28 | CCCCAGTC | -0.0514
29 | CAGCAATA | -0.0745
30 | AGGGCTTC | -0.147
31 | ATCAAGAT | -0.0736
32 | GGCCGATA | 0.0764
33 | ACCTATCG | 0.0761
34 | TTCACGAA | -0.162
35 | ATGGCTTA | -0.111
36 | TACTTTAA | -0.17
37 | ACAAGGGG | -0.0834
38 | CAGGCCCC | -0.238
39 | CCAATATA | -0.0952
40 | CATTCCGG | 0.451
41 | GCCATTAC | 0.137
42 | GATTTAAA | -0.159
43 | CGTCTTGC | -0.0141
44 | GCTTGTTA | 0.0045
45 | GCCCTTTA | -0.304
46 | AATAAGCT | -0.0309
47 | ACCACCAT | 0.116
48 | CGGCCCAA | 0.177
49 | CGGAACCA | 0.483
50 | ATTGATGA | 0.124

Row | Sequence | PBM E-score
51 | GACTAGCC | -0.311
52 | ACCGCGAG | -0.00369
53 | TTAGTAAA | -0.0384
54 | AGGGGATG | -0.14
55 | AAGTAGGC | -0.0291
56 | AGATGCCG | 0.168
57 | ACGATGGA | 0.0819
58 | AGCATAGG | -0.229
59 | CGGATATC | 0.391
60 | ATAGTCGA | 0.0166
61 | ACACTAGA | -0.0149
62 | CCCATGCA | -0.0997
63 | TCTATAAA | -0.167
64 | CATCTTAC | -0.215
65 | ACAACTAT | 0.105
66 | TCCTCAGA | -0.124
67 | CGCGCAAG | 0.109
68 | CAACAACC | -0.0219
69 | CTAAGTTA | -0.304
70 | AAGATCAT | -0.126
71 | CCTCTGAC | 0.021
72 | CGAGCCAC | -0.101
73 | CCGAATAA | 0.2
74 | CCACAAAG | 0.0085
75 | ACCCACAT | 0.00786

Row | Sequence | PBM E-score
76 | GTACGCTA | -0.0803
77 | ACAGAAGA | 0.0897
78 | ACGGTGTG | -0.103
79 | ACATTTTG | -0.198
80 | CTGTCTTA | -0.138
81 | AGACACGG | 0.18
82 | ATGCCCCA | -0.0204
83 | CGACTAGC | -0.0653
84 | CAAGGAGG | -0.0449
85 | AGAATCCG | 0.215
86 | AATCTTCT | 0.022
87 | TCGGGAGA | 0.12
88 | CTGTGACA | -0.192
89 | ATAGACGC | 0.126
90 | ATCAGGAA | 0.0955
91 | CCGCTGCA | 0.0776
92 | CTGCGAAG | -0.19
93 | AACAGAGC | -0.0483
94 | AACATCTG | -0.17
95 | AGCCGAGA | 0.139
96 | GGCACCCC | -0.0993
97 | CACTTTAG | -0.149
98 | ATTGAGAC | 0.0312
99 | GGATGTAA | 0.226
100 | GGATTCTA | 0.0635

Row | Sequence | PBM E-score
101 | CTCGTAGC | -0.167
102 | ATCTGTTC | 0.084
103 | GCAGAGGC | -0.108
104 | AAATAACG | -0.0302
105 | ATCGCCTG | -0.0606
106 | CGGGCGAG | 0.155
107 | AGACGCAA | 0.074
108 | GGGCAGAA | 0.0965
109 | GAGCGTGC | 0.0566
110 | AGCAGATC | -0.0743
111 | ATATTTGC | 0.118
112 | ATCGCAGG | -0.182
113 | TGTTGGAA | -0.0318
114 | CATGCCCC | 0.0743
115 | AACACGCA | -0.0584
116 | CGTCTCCC | 0.156
117 | AGACTTGA | -0.273
118 | GCATGCGC | 0.0518
119 | AGTACAAT | -0.0444
120 | CCGAAATC | 0.278
121 | CGTCTTAC | -0.158
122 | CCCTTACG | -0.137
123 | TGTGCAAA | -0.281
124 | CATATCTA | 0.141
125 | AGCGGGTA | 0.0103

Row | Sequence | PBM E-score
126 | GGCTCAAC | -0.247
127 | ACAATTTG | -0.117
128 | GGTGGGGA | 0.206
129 | AAACTGTA | 0.00412
130 | AGTGTAAT | -0.12
131 | CACTAAAC | -0.106
132 | AAACGGCG | 0.159
133 | CCGGGCGA | 0.291
134 | ATGACACG | 0.133
135 | AAACCGAG | 0.026
136 | AGCGTCGC | -0.0207
137 | AGGACGGA | 0.269
138 | GCATAATA | 0.0537
139 | AAGCAGGG | -0.216
140 | ACTACAGC | -0.174
141 | CTGTCCAC | 0.075
142 | AAATATAA | 0.0139
143 | CCACGAGG | -0.094
144 | ATGCCCGC | 0.242
145 | CACATGAG | -0.275
146 | CAACTACC | -0.0852
147 | CGAGCGCA | 0.128
148 | TAGACGCA | -0.132
149 | ACTTAAAC | -0.149
150 | GCCAGCAC | -0.0443

Row | Sequence | PBM E-score
151 | TCCGGAAA | 0.466
152 | CGCACCCG | 0.313
153 | TCGACGAA | 0.0119
154 | GTTAGGAA | -0.0285
155 | AGGGCAAA | -0.00116
156 | GCGCAAAC | 0.189
157 | GCTGCAAC | -0.0643
158 | ATGTGTTC | 0.228
159 | AGCGAGGA | 0.0797
160 | CATGAAAG | 0.0423
161 | CATACGGA | 0.359
162 | CCGGGCGC | 0.202
163 | GTATGCTA | -0.0709
164 | CCGCTAGG | 0.0934
165 | CACCACAA | 0.0367
166 | CGGGCACG | 0.215
167 | AACCTTCT | -0.0642
168 | GTAATATA | 0.0706
169 | ACGTCGCA | -0.139
170 | ACTGGGCA | -0.128
171 | CCATCAGG | -0.0111
172 | ATATAAGG | 0.167
